From the supplement of paper PMC11417369
This is one part of the list.

Test system: PfSIP2 AP2 domain 1 (GST-tagged)
Experiment: gcPBM binding intensity (ln(normalized median fluorescence intensity)); higher = stronger DNA binding
In short: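 Probes on an Agilent 4 × 180k array were primer-extended, double-stranded and 36 bp long, taken from intergenic genomic regions, with negative controls added. GST-tagged P. falciparum DNA-binding domains from E. coli, about 25 μg on average, were applied to the array for 1 h in 1× PBS containing 1% milk, 0.2 mg/ml BSA, 0.5% salmon testes DNA and 0.03% Triton X-100. Binding intensity, obtained after Alexa488 anti-GST antibody detection and a 488 nm scan, is the highest Masliner-normalised natural-log median intensity across replicate spots of either probe orientation.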

| Sequence | gcPBM binding intensity (ln) |
| --- | --- |
| ATATGTTCTACAAAAAAGATGTCGATTTATTTTCTT [CACACA_negctrl_site1179] | 6.88 |
| AAAAAAAAAAAAAAATGTACAAATAGTAGTTACAGA [XGTACX_site2531] | 7.29 |
| AACATGTTAAAATAAACACACAGCTAAGGTTTTTTT [CACACA_site157] | 6.72 |
| GCAAATGTGAAAACGTGTACACATTTTATTTAATTT [XGTACX_site8000] | 7.4 |
| ATAATATATGTATATCCACACACATATATATATATA [CACACA_site8471] | 9.46 |
| ATTTAAGATTTAATCACACACATATATATTATATAC [CACACA_site2907] | 7.01 |
| AAATGTAGATATTATCGTACACATATATTTATATAT [XGTACX_site6326] | 7 |
| TATTTGTAAATCGATACACACATATATATTAATATA [CACACA_site196] | 6.91 |
| AAAACATACCTATATACACACATATAAATATAAATA [CACACA_site6956] | 7.13 |
| TTTGATATAGAAAGAGCATGCAAGTTAGATAAAATA [TGCATGCA_site470] | 6.97 |
| TATATATTAATATACACACACACATATATATATATA [CACACA_site1608] | 8.91 |
| AATAAATTATTATGTACACACATAATAGTATATATA [CACACA_site1820] | 6.95 |
| TTTCAAACTGTTCTCACACACGAAATTAGAAATGAA [CACACA_site4509] | 7.13 |
| AAAACAAAATAGGGAACACACACATGTCAATATATA [CACACA_site8834] | 6.93 |
| TTTTTTTTTTTTTGGTTCACACTGAAAAGAGAGATA [GTGCAC_negctrl_site439] | 7.25 |
| TTTTGTTATTTTGAAGTGCACTTTCCACTTAATATA | 11 |
| CAATCATGGTTTTACACACACATGCATGTGAAAATT [CACACA_site4870] | 6.97 |
| TCATGTTTTACAAAAACACACAAATGAATATAAACA [CACACA_site4775] | 7.14 |
| TATATACATAGACACCCACACACAAAAAAAAAAAAA [CACACA_site8186] | 7 |
| AATAAATAAAAATTATGTACATATATAAAAAATACA [XGTACX_site8581] | 7.36 |
| TCGAATTTGGAAAGAAGTACATGAAGCCAACATATG [XGTACX_site5222] | 7.01 |
| TTTGAACGAAAATACTCACACATATTTATAAACATT [CACACA_site5182] | 6.73 |

| Sequence | gcPBM binding intensity (ln) |
| --- | --- |
| GTATTTTTAAATGACACACACATATATATATATATA [CACACA_site1662] | 9.21 |
| ATTTTTCATATATATATATTAATATATATATATTAA [CACACA_negctrl_site1681] | 7.73 |
| AAAAATATATTATATGTACACACAAAATTAAGGGAT [CACACA_site8384] | 7.5 |
| TGAATATTTATACATGCACACTAAAATAAAGAATCT [CACACA_site5351] | 8.82 |
| AAAATTTCTTTTTTTTGTACATATATAATAATATAT [XGTACX_site7107] | 6.92 |
| TCTTTCTCTCTTCAAAGTACATATAATATATACTTC [XGTACX_site7982] | 7.15 |
| CAGTTAATGTTGGTACTTTATATAAAAATGATATGA [CACACA_negctrl_site1600] | 7.06 |
| ATAACAACATTTGATAAACACACAGAAGTATAAATA [CACACA_site8739] | 7.11 |
| AAAATATAGTTATCAATATATAATATTTTTTTTTTA [CACACA_negctrl_site459] | 6.69 |
| TTATTAATATTGCATGCACACTATATAATAATTGAA [CACACA_site8258] | 8.31 |
| TATAAATAGGCATATACACACTTTTAATATTCATAA [CACACA_site6123] | 6.84 |
| CAAACACCCAAACACACACACACATACATACATACA [CACACA_site8044] | 8.46 |
| ATAGTAATGCATAAATATATATTATATATATATATA [XGTACX_negctrl_site576] | 9.1 |
| CTATTGTTAAATATAATACACACGTTTTTAAAAATA [CACACA_site2183] | 6.97 |
| GTATATATTTTGTATTCATTTGTCACATATAATAGA [CACACA_negctrl_site506] | 7.17 |
| ATTATATATACATAATGTACATATATATATTACCTT [XGTACX_site7624] | 7.03 |
| TATAAAATGACTATATATAATATTAAAAAAAAAAAA [TGCATGCA_negctrl_site387] | 6.88 |
| AAAAAAAAAAAAAATTCACACACATATAAAAAATTA [CACACA_site8140] | 7.1 |
| TAAATTAAGAATTTTACACACATTAAATAAAAAAAA [CACACA_site3638] | 6.73 |
| AAATTAGGAAATTGCACACAAAAAAAAACATATTAT [CACACA_site4074] | 7.02 |
| TTTTTTTATTTTTTTATAAATGTATTTCTATTATTT [CACACA_negctrl_site1562] | 6.6 |
| TATAAACATATAAAAAGTACATACCAATTAATATTA [XGTACX_site967] | 7.07 |

| Sequence | gcPBM binding intensity (ln) |
| --- | --- |
| GGATAAAATGCTACGAGTACATAAGCATTTTTCCCT [XGTACX_site7796] | 7.14 |
| TCTTTTAAAAATATAAAAAGGAATATATAAAAATGT [CACACA_negctrl_site332] | 7.3 |
| AATATATTCATCATATCAATATTGTCAAGCAAACGA [TGCATGCA_negctrl_site37] | 6.95 |
| TATTCTGTGTATAAAAGTACAAATATTTAAATGTAT [XGTACX_site8234] | 7.2 |
| GAATTTATTTTATTTTCACACACAAAAATAAATATC [CACACA_site8762] | 7.11 |
| AATAAATAGATATATACACACATATATGTGTACATA [CACACA_site7476] | 7.06 |
| TTATCCATTTTAATCACACATACTTTACTTTGGAAC [CACACA_site5584] | 6.84 |
| TTCTTTAATAAAATAATCTCAAAGAAAATTTTTTCT [GTGCAC_negctrl_site589] | 6.73 |
| TACAATTTAAAACACACACACAATAATACATATATA [CACACA_site1251] | 7.2 |
| TATATTATTTATATTTGTACACAGCGATATGAAATA [XGTACX_site987] | 7.2 |
| ATATTATTATAAACTTCACACATTTTATGGGTTTTT [CACACA_site4631] | 6.8 |
| CATAAGCACAAGCACAAGCACACATTTATATATATA [CACACA_site882] | 8.14 |
| CGCATATTTTATGTTTGTACTCATATGAATATCATA [XGTACX_site4717] | 6.97 |
| TTGTATATATTAAATTGTACTTATTTTTTGTATATA [XGTACX_site3251] | 7.12 |
| ATAAAAATAAAAAGATGTACGTATTTTTTTTTTTTT [XGTACX_site5329] | 7.13 |
| GAAATAGAGAAACACACACACATATATTTATGTATT [CACACA_site3967] | 6.93 |
| TATAAATAAATGCGTACACACTAATAAAAAAAAAAA [CACACA_site4630] | 7.31 |
| CATTATTATGATAGTTGTACAATTTTTATAAAAAAT [XGTACX_site4411] | 7.26 |
| TTTTTTTTTTTTGAGTGTACTAAAATATTACCTTTT [XGTACX_site646] | 6.83 |
| TGGAAAAATAGGCACACACACATATATACCTATATA [CACACA_site4843] | 7 |
| AATATTATAAATGATACACACTTAAAATACACCCAC [CACACA_site5498] | 7.45 |
| TGAATATTTACTTTAGCACACAATTTGTATTTGATT [CACACA_site960] | 6.89 |

| Sequence | gcPBM binding intensity (ln) |
| --- | --- |
| AATATATTTTAATACACACACACATATATATATATA [CACACA_site5969] | 9.65 |
| TTTTTTTTAAATATCACACACATATAACATATTCTA [CACACA_site7687] | 6.97 |
| ATATGTATATAAATGTGTACTTATAAATATATATAT [XGTACX_site3250] | 8.47 |
| TAATATTAATCCTAGTGTACATTAATTTATATGTAT [XGTACX_site3583] | 7.08 |
| ATTATATATATATAAACACACAAATATTTTTATATA [CACACA_site5005] | 7.05 |
| ACCTATATAAGTTATACACACAAATATAGATATATA [CACACA_site7356] | 7.06 |
| ATTTAAGATTTAATCACACACATATAGATTATAGAC [CACACA_site7383] | 7.24 |
| ATGAAGAAGTGTAAATGTACATTTTATGTAGAACAA [XGTACX_site6925] | 6.87 |
| TTTACAGAAAGTTACATACACACTAATATTTACACC [CACACA_site1009] | 7.29 |
| TTTATATGTATTAAGTGTACACATATAATGTGTTTG [XGTACX_site6629] | 7.29 |
| TATAAGAGGATATATACACACAAAAATATGTACAGT [CACACA_site6885] | 7.07 |
| TTATTTTTTTTTTATTGTACTAGGAAAATTTCGATA [XGTACX_site702] | 6.83 |
| CTTCCTTAGGAATGTACACACATATATAATATGTTG [CACACA_site461] | 6.95 |
| TACAGACAGAAATGCACACACATATTTATATTTATA [CACACA_site7139] | 7.23 |
| AATAAAAAAGAATATACACACATAAATATAAAATAT [CACACA_site683] | 6.85 |
| AATTAAAAAGAAAAAAGTACATATTTTTTTAAAAAA [XGTACX_site7384] | 6.99 |
| ATATATATATATATGTGTACTAATAAGGTTAAATAA [XGTACX_site1535] | 9.29 |
| AAATATATATTTCTTAGTACATATGTATTTTTTTTT [XGTACX_site938] | 6.85 |
| TTTGACAAATTATTGTGTACACAATATTATTATATA [XGTACX_site8320] | 7.14 |
| ACAAAATGTAGATATTGTACATATTGTAGATATTGT [XGTACX_site7619] | 6.98 |
| ATTTACATTATATTGAATATGCCATATTATATTATT [CACACA_negctrl_site811] | 6.72 |
| TCTAACATATTTTTAATACACACTTAAAAAAGTACT [CACACA_site1366] | 7.01 |
